In all, about 310,000 compounds went through this assay and about 14,000 (4.5%) showed an effect of 50% or more. The effect is printed as a negative number. The list shows a part of the results.
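Note: peak tail current of the secondary pulse compared with the same well before compound.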

The target of the assay is human ether-à-go-go-related gene (hERG) potassium channel (human, UniProt Q12809). The experiment in a line: primary screen, population patch clamp on CHO cells stably expressing hERG.
Chain of human ether-à-go-go-related gene (hERG) potassium channel (Q12809 whole entry, looked up): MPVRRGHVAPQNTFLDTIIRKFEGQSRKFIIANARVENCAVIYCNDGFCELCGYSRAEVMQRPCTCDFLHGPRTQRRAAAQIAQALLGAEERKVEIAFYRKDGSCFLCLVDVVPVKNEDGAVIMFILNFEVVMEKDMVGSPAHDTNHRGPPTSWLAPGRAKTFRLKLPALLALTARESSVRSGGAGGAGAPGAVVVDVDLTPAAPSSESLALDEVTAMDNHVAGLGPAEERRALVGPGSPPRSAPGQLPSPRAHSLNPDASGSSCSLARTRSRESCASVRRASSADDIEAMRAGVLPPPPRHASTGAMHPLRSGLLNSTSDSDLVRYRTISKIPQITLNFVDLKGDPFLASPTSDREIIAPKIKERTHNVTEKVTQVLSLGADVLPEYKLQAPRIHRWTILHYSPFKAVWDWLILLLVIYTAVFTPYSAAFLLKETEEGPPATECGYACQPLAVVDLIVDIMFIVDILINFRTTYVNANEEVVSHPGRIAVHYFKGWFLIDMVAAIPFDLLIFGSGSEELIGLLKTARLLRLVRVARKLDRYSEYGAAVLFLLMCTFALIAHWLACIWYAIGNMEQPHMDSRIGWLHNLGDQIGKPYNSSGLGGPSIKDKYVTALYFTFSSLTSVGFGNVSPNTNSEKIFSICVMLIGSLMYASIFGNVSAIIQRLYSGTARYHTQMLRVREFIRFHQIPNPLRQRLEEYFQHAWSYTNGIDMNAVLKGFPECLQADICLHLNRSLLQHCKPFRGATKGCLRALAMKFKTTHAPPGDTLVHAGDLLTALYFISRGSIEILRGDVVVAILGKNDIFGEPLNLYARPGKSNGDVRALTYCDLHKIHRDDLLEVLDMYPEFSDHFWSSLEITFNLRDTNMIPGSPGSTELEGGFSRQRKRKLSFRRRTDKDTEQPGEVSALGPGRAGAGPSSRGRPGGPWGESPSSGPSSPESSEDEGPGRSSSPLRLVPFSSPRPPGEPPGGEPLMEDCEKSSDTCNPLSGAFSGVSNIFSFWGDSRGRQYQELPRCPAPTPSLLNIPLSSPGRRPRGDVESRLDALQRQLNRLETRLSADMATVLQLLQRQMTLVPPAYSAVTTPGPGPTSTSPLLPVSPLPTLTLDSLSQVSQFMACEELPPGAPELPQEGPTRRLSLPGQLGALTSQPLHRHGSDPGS
Take `O=C(NCc1cccc(Cl)c1)c1cccc(S(=O)(=O)N2CCCCC2)c1`: the “hERG current change (%, negative = inhibition) at 10uM” value came to 7.08%.
To `Brc1cnc2nc(SC/C=C/c3ccccc3)[nH]c2c1` belongs -3.38%; to `COc1cc(OC)cc(C(=O)N2CCN(Cc3ccccc3C(F)(F)F)CC2)c1`, -15.2%.
In the case of `CCOc1ccccc1C(=O)N(Cc1sccc1C)C1CCS(=O)(=O)C1` (stereo not drawn), the “hERG current change (%, negative = inhibition) at 10uM” value is -17.5%.
In the case of `Cc1ccc(SCCSc2nc(C)cc(=O)[nH]2)cc1`, the “hERG current change (%, negative = inhibition) at 10uM” value is 14.1%.
Regarding `COCCNC(=O)c1c[nH]c2ccc(S(=O)(=O)Nc3ccc(F)cc3F)cc2c1=O`, the “hERG current change (%, negative = inhibition) at 10uM” value came to 27.8%.
For `COc1ccc2cc(C)c3nnc(SCC(=O)Nc4cc(OC)c(OC)cc4C(=O)O)n3c2c1` the value was 16.7%; for `CC(C)(C)NC(=O)/C(=C/c1ccccc1F)NC(=O)c1ccc([N+](=O)[O-])cc1`, -25.6%.
For `Cl.NC1C=CC=C(C(=O)O)C1` (stereo not drawn) the value was 3.23%; for `Cc1[nH]c2ccccc2c(=O)c1SC(F)(F)C(F)C(F)(F)F` (stereo not drawn), -5.97%; for `COc1ccc(NC(=O)Cn2nnc(C(=O)NCCc3ccccc3)c2N)c(OC)c1`, 3.71%.
In the case of `COc1ccc(OC2C(=O)N(Cc3ccc(F)cc3)C2c2ccc(OC)c(OC)c2)cc1` (stereo not drawn), the “hERG current change (%, negative = inhibition) at 10uM” value is -13.6%.
To `Cc1nc2ccccc2nc1SCC(=O)c1ccccc1` belongs 16.3%.
As to `C=CCN1C(=O)NC(=O)/C(=C/c2ccc(N(C)C)c(Br)c2)C1=O`, the “hERG current change (%, negative = inhibition) at 10uM” value came out at 8.07%.
To `CCOc1ccc(-c2nc(C#N)c(N3CCN(Cc4ccccc4)CC3)o2)cc1` belongs 4.04%.
In the case of `CCN(CC)CCOc1nnc(-c2ccc(OC)cc2)c2ccccc12`, the “hERG current change (%, negative = inhibition) at 10uM” value was -65%.
For `CN(Cc1ccccc1)C(=O)COC(=O)c1cc(Cl)nc(Cl)c1` the value was -5.63%; for `CN(CC(=O)Nc1ccccc1Cl)C(=O)COC(=O)c1ccc(C(F)(F)F)cc1`, -9.53%.
To `COc1ccccc1OCCn1cc(/C=C(\C#N)C(=O)NCc2ccco2)c2ccccc21` belongs -1.19%.
To `CC1(C)CC(=O)C2=C(C1)Nc1ccccc1N=C2.Cl` belongs -8.52%; to `Cc1ccccc1N1C(=O)C2ON(c3ccccc3)C(c3ccco3)C2C1=O` (stereo not drawn), 16.8%; to `CC1CCCCC1NC(=O)c1ccc(NS(=O)(=O)c2ccc3[nH]c(=O)[nH]c3c2)cc1` (stereo not drawn), -4.17%.
For the molecule `COc1cc(NC(=O)COc2ccc(C)c(C)c2)ccc1NC(=O)c1ccco1`, the “hERG current change (%, negative = inhibition) at 10uM” value is recorded as -14.3%.
For `Cn1c(CCn2ccccc2=O)nc2cc(NC(=O)COc3ccccc3)ccc21` the value was -40.6%; for `O=[N+]([O-])c1ccccc1/C=C/C=N/n1c(-c2ccccc2)n[nH]c1=S`, 8.59%; for `COc1ccc(OCC(=O)NNC(=O)c2ccc3c(=O)n4c(nc3c2)CCC4)cc1`, -5.54%.
Regarding `O=C(CCC(=O)NCc1ccccc1)NCc1ccccc1`, the “hERG current change (%, negative = inhibition) at 10uM” value worked out at 11.8%.
`Cc1cc(C)n2nc(C(=O)NCC(=O)Nc3ccc(F)c(F)c3)nc2n1`: the “hERG current change (%, negative = inhibition) at 10uM” value was found to be 4.9%.
For the molecule `COc1ccc(N2CCN(C(=O)CCn3nnc4ccccc43)CC2)cc1`, the “hERG current change (%, negative = inhibition) at 10uM” value was -3.96%.
On to `O=C1CCCN1CN(C(=O)c1ccc2c(c1)OCO2)c1ccc(F)cc1`, for which the “hERG current change (%, negative = inhibition) at 10uM” value is on record as 8.9%.
Take `CCOc1ccc(C(=O)Nc2cc(=O)n(C)c(=O)n2C)cc1`: the “hERG current change (%, negative = inhibition) at 10uM” value is recorded as 2.31%.
As to `Cn1c(=O)cc(SCC(=O)N2CCN(C(=O)c3ccco3)CC2)c2ccccc21`, the “hERG current change (%, negative = inhibition) at 10uM” value is on record as -27.4%.
To `Cc1ccc(N(CC(=O)NC2CCCCC2)C(=O)CNC(=O)c2cccs2)cc1` belongs -11.1%; to `Cc1ccsc1C(=O)Nc1cccc(S(=O)(=O)N(C)C)c1`, -7.26%.
To `CCc1nn(CCCC(=O)N2CCC(C)CC2)c(=O)c2cc3occc3n12` belongs -2.71%; to `O=C1N=c2ccccc2=C1c1sc(=O)[nH]c1O`, 15.6%; to `Cn1cc(Br)c(C(=O)n2cc(Br)cn2)n1`, 16.2%.
Consider `CCOc1ccc2ccccc2c1C(=O)N1CCN(c2ccccc2)CC1`, for which the “hERG current change (%, negative = inhibition) at 10uM” value is recorded as -36.4%.
For `COC(=O)c1scc(S(C)(=O)=O)c1-n1cccc1`, the “hERG current change (%, negative = inhibition) at 10uM” value was 9.77%.
In the case of `O=C(c1ccc(Br)cc1)N1CCN(S(=O)(=O)c2ccccc2)CC1`, the “hERG current change (%, negative = inhibition) at 10uM” value was -38.5%.
For `N#Cc1ccsc1NC(=O)CN1CCN(Cc2ccccc2)CC1` the value was -66.4%; for `COc1ccc2nc(/N=C(\N)NC(=O)C(C)(C)C)nc(C)c2c1`, -46.5%.
`O=C(CC(Nc1ccccc1)C(=O)O)c1ccccc1` (stereo not drawn): the “hERG current change (%, negative = inhibition) at 10uM” value stood at 11.2%.
To `Nc1nc(CN2CCN(C(c3ccccc3)c3ccccc3)CC2)nc(Nc2ccccc2)n1` belongs -18.4%.
For `Cc1ccc2oc(=O)cc(CN3CCOCC3)c2c1`, the “hERG current change (%, negative = inhibition) at 10uM” value was -8.53%.
To `CCCCN=CC1=C(O)CC(c2ccccc2)CC1=O` (stereo not drawn) belongs -9.85%.
For `Cl.OC(COc1ccccc1F)CN1CCC(Cc2ccccc2)CC1` (stereo not drawn), the “hERG current change (%, negative = inhibition) at 10uM” value is reported as -76.2%.
For `CCOC(=O)NC(=O)CSc1nc2ccc(C)cc2[nH]1` the value was 8.02%; for `Cc1ccccc1CCNC(=O)C1CC(O)CN1C(=O)Nc1ccccc1` (stereo not drawn), 6.41%.
For `CCC1CCCCN1Cc1nc2c(c(=O)n(C)c(=O)n2C)n1CCCc1ccccc1` (stereo not drawn) the value was -11.2%; for `COc1cccc(CNc2nc3nc(C)c(Cl)c(=O)n3[nH]2)c1`, 4.31%.
As for `COc1ccccc1NCC(=O)c1ccc(C)c(C)c1`, the “hERG current change (%, negative = inhibition) at 10uM” value was 15.3%.
On to `O=C(CCC(=O)Nc1ccccc1)NNC(=O)c1ccccc1Cl`, for which the “hERG current change (%, negative = inhibition) at 10uM” value was found to be 13.8%.
For `Cc1cc(C)c2c(n1)sc1c(=O)n(-c3ccccc3)c(=O)[nH]c12` the value was 11.1%.
On to `COc1ccc(Cl)cc1S(=O)(=O)N1CCCC(C(=O)NCc2ccccc2)C1` (stereo not drawn), for which the “hERG current change (%, negative = inhibition) at 10uM” value is on record as -34.2%.
For `O=C(CN1CCOc2ccccc21)NCc1ccco1` the value was 2.93%; for `CC(/C=N/n1c(C2CCCCC2)n[nH]c1=S)=C\c1ccccc1`, 12.5%.

Source of the values: PMC4336329 (PLoS ONE, 2015).
